# According to the RNAGym collection of RNA variant scans (doi:10.1093/nar/gkz1192):
# Read counts are not given, so values of variants with three or more changes are uncertain.
# B1: CPEB3 Ribozyme (parent)
# chain: UAACAGGGGGCCACAGCAGAAGCGUUCACGUCGCAGCCCCUGUCAGAUUCUGGUGAAUCUGCGAAUUCUGCUGUAUAUCUC
# Variants of: B1
# Test: self-cleavage, relative activity (ratio to wild type); higher = more cleavage; in vitro, sequencing
# Outline: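 For each CPEB3 ribozyme variant, relative activity is its cleaved/total read fraction divided by the unmutated ribozyme's. Barcoded error-prone PCR libraries were transcribed by T7 RNA polymerase (5 hours, 37°C) and held in DNase I for 15 min before an EDTA stop, with cleavage occurring throughout. Template-switching reverse transcription and Illumina sequencing were used to read the RNAs. A 5-read minimum applied, and results are the mean of three batches.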
row,Variant,self-cleavage
1,UAUCAGGGGGCCGCAGCAGAAGCGUCCACCUCGCAGCCCCUGUCAGAUUCUGGUGAAUCAGCGAAUUCUGCUGUAUAUCUC [A3U A13G U26C G30C U60A],0.24
2,UAGCAGGGGGCCACAGCAGAAGCGUUCACGUCGCAGCCCCUGUCAGAUUCUGGUGAAUCCGGGAAUUCUGCUGUAUAUCUC [A3G U60C C62G],0.22
3,UAUCUGGGGACCACAGCAGAAGCGUUCACGUCGCAGCCCCUGUCAGAUUCUGGUGAAUCUGCGUAUUCUGCUGUAUAUCUC [A3U A5U G10A A64U],0.12
4,UAGCAGGGGGCCACAGCAGAAGCGUUCACGUCGCAGCCCCUGUCAGAUUCUGGUGAAUCUGCGAAUUCUGCUGAAUAUCCC [A3G U74A U80C],1.15
5,UAGCAGGGGGCCACAGCAGAAGCGUUCACGUCGCAGCCCCUGUCAGACUCCGGUGAAUCUGCGAAUUCUGCUGUAUAUCUC [A3G U48C U51C],0.56
6,UAGCAGGGGGCCACAGCAGAAGCGUUCACGUCGCAGCCCCUGUCAGACUCUGGUGAAUCGGCGAAACCUGCUGUAUAUCUC [A3G U48C U60G U66A U67C],0.27
7,UAUCAGGGGGCCCCAGCAGAAGCGUUCACGUCGCAGCCCCUGUCAGACUCUGGUGAAUCUGCGAGUUCUGCUGUAUAUCUC [A3U A13C U48C A65G],0.29
8,UAGCAGGGGGCCACAGCAGAAGCGUUCACGUCGCAGCCCCUGUCAGAUACAGGUGAAUCUGCGAAUUCUGCUGUAUAUCUC [A3G U49A U51A],0.11
9,UAGCAGGGGGCCACAGCAGAAGCGUUCACGUCGCAGCCCCUGUCAGAUUCCGGUGAAUCUGCGAAUUCUGCAGUGUAUCUC [A3G U51C U72A A75G],1.15
10,UAUCUGGGGGCCACAGCAGAAGCGUUCACGUCGCAGCUCCUGUCAGAUUCUGGUGAAUCUGCGAAUUAUGCUGUAUAUCUC [A3U A5U C38U C68A],0.46
11,UAUCAGGGGGCCGCAGCAGAAGCGUUCACGGCGCAGCCCCUGUCAGAUUCUGGUGAAUCUGCGAAUCCUGCUGUAUAUCCC [A3U A13G U31G U67C U80C],0.24
12,UAGCAGGGGGCCACAGCAGAAGCGUUCACGUCGCAGCCCCUGUCAGAUUCUGGUGAAUCCGCGAAUUCUGCUGUAAAUCUC [A3G U60C U76A],0.5
13,UAGCAGGGGGCCACAGCAGAAGCGUUCACGUCGCAGCCCCUGUCAGACUCUGGUGAAUCUGCGAAUUCAGCUGUAUAUCCC [A3G U48C U69A U80C],0.2
14,UAUCGGGGGGCCACAGCAGAAGCGUUCACGUCGCUGCCCCUGUCAGGUUCUGGUGAAUCUGCGAAUUCUGCUGUAAAUCUC [A3U A5G A35U A47G U76A],0.31
15,UAUCUGGGGGCCACAGCAGAAGCGUUCACGUCGCAGCCCCUGUCAGAUUCUGGUGAAUCUUCGAAUUCUGCUGUAUAUCUC [A3U A5U G61U],0.76
16,UAUCAGGGGGCCGCAGCGGAAGCGUUCACGUCGCGGCCCAUGUCAGAUUCUGGUGAGUCUGCGAAUUCUGCUGUAUAUCUC [A3U A13G A18G A35G C40A A57G],0.37
17,UAUCAGGGGGCCUAAGCAGAAGCGUUCACGUCGCAGCCCCUGUCGGAUUCUGGUGAAUCUGCGAAUUCUGCUGUAUAUCUC [A3U A13U C14A A45G],1.07

row,Variant,self-cleavage
1,UAGCAGGGGGCCACAGCAGAAGCGUUCACGUCGCAGCCCCUGUCAGAUUCUGGAGAAUCUGCUAAUUCUGCUGUAUAUCUC [A3G U54A G63U],1.13
2,UAGCAGGGGGCCACAGCAGAAGCGUUCACGUCGCAGCCCCUGUCAGAUCCUGGUGAAUCUGCGAAUUCUGCUGUAUAUCAC [A3G U49C U80A],0.78
3,UAGCAGGGGGCCACAGCAGAAGCGUUCACGUCGCAGCCCCUGUCAGAUCCUGGGGAAUCUGCGAAUUCUGCUGAAUACCUC [A3G U49C U54G U74A U78C],0.55
4,UAGCAGGGGGCCACAGCAGAAGCGUUCACGUCGCAGCCCCUGUCAGAUUCAGGUGAAUCUGCGAACUCUGCUGUGUAUCUC [A3G U51A U66C A75G],0.3
5,UAGCAGGGGGCCACAGCAGAAGCGUUCACGUCGCAGCCCCUGUCAGAUCCUGGCGAUUCUGCGAAUUCUGCUGUAUAUCAC [A3G U49C U54C A57U U80A],0.45
6,UAGCAGGGGGCCACAGCAGAAGCGUUCACGUCGCAGCCCCUGUCAGAAUCUGGUGAUUCUGCGAAUUCUGCUGUAUAUCUC [A3G U48A A57U],1.13
7,UAGCAGGGGGCCACAGCAGAAGCGUUCACGUCGCAGCCCCUGUCAGACUCUGGUGAAUCUGCGAAUUCUGCUGUAUAACUC [A3G U48C U78A],0.96
8,UAGCAGGGGGCCACAGCAGAAGCGUUCACGUCGCAGCCCCUGUCAGACUCUGGUGAAUCGGCGAAUUCUGCUGUAGUUCUC [A3G U48C U60G U76G A77U],0.13
9,UAUCAGGGGGCCGCAGCAGAAGCGUUCACGUCGCAGCCCCUGUCAGAUUCUGGUGAAUCUGCGAGUUCAGCUGUAUAUCUC [A3U A13G A65G U69A],0.3
10,UAUCAGGGGGCCCCAGCAGAAGCGUCCACGUCGCAGCCCCUGUCAGAUUCUGGUGAAUCUGCGAAUUCUGCAGUAUAUCUC [A3U A13C U26C U72A],0.35
11,UAUCCGGGGGCCUCAGCAGGAGCGUUCACGUAGCAGCCCCUGUCAGAUCCUGGUGAAUCUGCGAAUUCCGCUGUAUAUCUC [A3U A5C A13U A20G C32A U49C U69C],0.18
12,UAGCAGGGGGCCACAGCAGAAGCGUUCACGUCGCAGCCCCUGUCAGAUUCUGGUGAAUCAGCGAAUUCUGCUGUAUAACUC [A3G U60A U78A],0.7
13,UAGCAGGGGGCCACAGCAGAAGCGUUCACGUCGCAGCCCCUGUCAGAUUCUGGCGAAUCUGCGAAUUCUGCUGUAUACCUC [A3G U54C U78C],0.56
14,UAUCAGGGGGCCUCAGCAGAAGCGUUCACGUCGCAGCCUCUGUCAGACUCAGGUGAAUCAGCGAAUUCUGCAGUAUAUCUC [A3U A13U C39U U48C U51A U60A U72A],0.11
15,UAGCAGGGGGCCACAGCAGAAGCGUUCACGUCGCAGCCCCUGUCAGAUUCUGGUGAAUCCGCGAAUUCUGCCGUAUAUCUC [A3G U60C U72C],0.43
16,UAUCAGGGGGCCGCAGCAGAAGCGUCCACGUCGCAGCCCCUGUCAGAUUCUGGUGAAUCUGCGUAUUCUGCUGUAUAUCUC [A3U A13G U26C A64U],0.13
17,UAUCAGGGGGCCGCAGCAGAAGCGUUCACGUCGCAGCCCCAGUCAGAUUCUGGUGAAUCUGCGAAUUCUGCCGUAUACCUC [A3U A13G U41A U72C U78C],0.24
